Binding signal (log2 fold change) data for 103 sequences are collected here from publication PMC5892938.

Some of the results follow. The source does not settle which construct or isoform was used.

The experiment addresses GST-SBP-ILF3 (Homo sapiens) (UniProt Q12906). Kind of experiment: targeted RNA Bind-n-Seq. Particulars: RBNS binding buffer: 25 mM Tris pH 7.5, 150 mM KCl, 3 mM MgCl2, 0.1% Tween, 0.5 mg/mL BSA, 1 mM DTT; 27 nM protein, 750 pM RNA pool; temperature not stated; high values mean tight binding; sequences stand for … in GGGUAAAAGCGAGGUGAA…CGGGACAAGUAUUAUGGG
On to “UUUUUUUUUUGAGACCGGAACGGUUUUCUA [tttttgagapaired]”, for which the binding signal (log2 fold change) stood at 0.0897.
Regarding “UUUUUUUUUUGAGAGGGUAUCCCUUUCCAG [tttttgagapaired]”, the binding signal (log2 fold change) was 0.0726.
The same measure for “GUGGUGUGUGUUGGUUCCUAACACACAUCG [gtspaired]”: -0.803; for “GGUGUGUGUGUUGGUGCCUAACACAUACGC [gtspaired]”: -0.869; for “GUUGGUGGUGUUGGACCCUAACACCGCCGA [gtspaired]”: -0.00764.
The same measure for “UUUUUUUUUUGAGACUGUCACAGUCUUCUG [tttttgagapaired]”: 0.402.
The same measure for “GUGUGUUGUGUUGGUCCCUAACACAGCACG [gtspaired]”: -0.565.
Consider “UUUUUUUUUUGAGAUGGCAGCCAUCUCCAG [tttttgagapaired]”, for which the binding signal (log2 fold change) was 0.573.
The same measure for “UUUUUUUUUUGAGAGCGUUCCGCUCUCCUA [tttttgagapaired]”: 0.41.
The same measure for “UUUUUUUUUUGAGACGGAAGCCGUUUCCGG [tttttgagapaired]”: 0.699.
The same measure for “GUGUGUGGUGUUGGCUUCUAACACCGCAUA [gtspaired]”: -0.905.
As for “GUGUGGUGUGUUGGCCUCUAACACAUCACG [gtspaired]”, the binding signal (log2 fold change) is -0.756.
The same measure for “UUUUUUUUUUGAGACGGUGUCUGUCUUCUA [tttttgagapaired]”: 0.725.
The same measure for “UUUUUUUUUUGAGAUGGUGUCCAUCUUCUA [tttttgagapaired]”: 0.484; for “GUGUGUUGUGUUGGAACCUAACACAACGCA [gtspaired]”: -0.803.
With “GUGUGUGGUGUUGGCACCUAACACCGCACA [gtspaired]”, the binding signal (log2 fold change) was -0.915.
The same measure for “UUUUUUUUUUGAGACGGUGGCCGUCUCCAG [tttttgagapaired]”: 0.723; for “GUGUGGUGUGUUGGUCCCUAACACACCACG [gtspaired]”: -0.307; for “UUUUUUUUUUGAGAUCGAGACGAUCUUCUG [tttttgagapaired]”: -0.278.
With “UUUUUUUUUUGAGAUGGUUUCCAUCUCCUA [tttttgagapaired]”, the binding signal (log2 fold change) was -0.235.
Regarding “UUUUUUUUUUGAGACCGUCACGGUCUCCUG [tttttgagapaired]”, the binding signal (log2 fold change) is 0.302.
The same measure for “GUGUGUUGUGUUGGAGUCUAACACAGCACG [gtspaired]”: -0.665; for “GUGUGUGGUGUUGGCAUCUAACACCGCGCG [gtspaired]”: -0.685; for “UUUUUUUUUUGAGAUGGGGUCCGUCUCCGG [tttttgagapaired]”: 0.972.
The same measure for “UUUUUUUUUUGAGACUGCUCCAGUCUUCUA [tttttgagapaired]”: 0.675; for “UUUUUUUUUUGAGAGGGCGACCCUCUCCGG [tttttgagapaired]”: 0.376.
The same measure for “GUGUGUGGUGUUGGUGCCUAACACCGCAUA [gtspaired]”: -0.397; for “UUUUUUUUUUGAGAUCGGCACGAUCUCCAG [tttttgagapaired]”: 0.165; for “GUGGUGUGUGUUGGUCUCUAACACAUACCG [gtspaired]”: -0.951.
Turning to “UUUUUUUUUUGAGAGUGAAACACUCUUCUA [tttttgagapaired]”, the binding signal (log2 fold change) came out at 0.103.
The same measure for “UUUUUUUUUUGAGAUGGUGGCCAUCUCCUG [tttttgagapaired]”: 0.831; for “UUUUUUUUUUGAGAACGGUGCGUUCUCCAG [tttttgagapaired]”: 0.294; for “GGUGGUGGUGUUGGAUUCUAACACCGCUAC [gtspaired]”: -0.44.
The same measure for “UUUUUUUUUUGAGACCGAACCGGUCUUCUG [tttttgagapaired]”: 0.214.
The same measure for “UUUUUUUUUUGAGAGGGAAGCCCUUUCCAG [tttttgagapaired]”: 0.22.
Consider “UUUUUUUUUUGAGACGGAAGCCGUUUCCUA [tttttgagapaired]”, for which the binding signal (log2 fold change) came out at 0.29.
For the sequence “GUGUGUUGUGUUGGACUCUAACACAACGCG [gtspaired]”, the binding signal (log2 fold change) was -0.968.
The same measure for “UUUUUUUUUUGAGAAGGUGCCCUUCUCCAG [tttttgagapaired]”: 0.248.
As for “UUUUUUUUUUGAGACCGCAACGGUCUCCAG [tttttgagapaired]”, the binding signal (log2 fold change) was found to be 0.495.
The same measure for “GUGUUGUGUGUUGGAGUCUAACACACAGCA [gtspaired]”: -0.336.
“GUGUGGUGUGUUGGUAUCUAACACAUCACA [gtspaired]”: the binding signal (log2 fold change) is -0.794.
Consider “UUUUUUUUUUGAGAAGGACUCCUUCUCCAG [tttttgagapaired]”, for which the binding signal (log2 fold change) was -0.146.
For the sequence “UUUUUUUUUUGAGACGGUGGCCGUCUCCGG [tttttgagapaired]”, the binding signal (log2 fold change) was determined as 0.626.
The same measure for “UUUUUUUUUUGAGACCGUGACGGUCUCCUA [tttttgagapaired]”: 0.469; for “GUGUGUGGUGUUGGUCCCUAACACCGCAUA [gtspaired]”: -0.587; for “UUUUUUUUUUGAGACGGUGGCCGUCUCCUA [tttttgagapaired]”: 0.736.
Consider “GGUGGUUGUGUUGGUGCCUAACACAGCUAC [gtspaired]”, for which the binding signal (log2 fold change) is -0.484.
In the case of “GUGGUUGGUGUUGGCCUCUAACACCGAUCA [gtspaired]”, the binding signal (log2 fold change) is -0.745.
Turning to “GGUGUGUGUGUUGGCAUCUAACACACGCGC [gtspaired]”, the binding signal (log2 fold change) is -0.795.
As for “UUUUUUUUUUGAGACCGCAUCGGUCUCCGG [tttttgagapaired]”, the binding signal (log2 fold change) is 0.214.
As to “UUUUUUUUUUGAGAUGGAUACCAUUUCCGG [tttttgagapaired]”, the binding signal (log2 fold change) was found to be 0.327.
The same measure for “UUUUUUUUUUGAGAGCGUAACGUUCUCCAG [tttttgagapaired]”: 0.37; for “UUUUUUUUUUGAGACUGCAACAGUCUCCUG [tttttgagapaired]”: 0.413.
On to “UUUUUUUUUUGAGAGCGGAGCGUUCUCCGG [tttttgagapaired]”, for which the binding signal (log2 fold change) was determined as 0.401.
Consider “UUUUUUUUUUGAGACUGCUACAGUCUCCUG [tttttgagapaired]”, for which the binding signal (log2 fold change) worked out at 0.542.
On to “UUUUUUUUUUGAGAUGGUCCCCAUCUCCGG [tttttgagapaired]”, for which the binding signal (log2 fold change) was found to be 0.902.
On to “UUUUUUUUUUGAGACGGAGACCGUCUCCUA [tttttgagapaired]”, for which the binding signal (log2 fold change) turned out to be 0.404.
The same measure for “GUGUGUUGUGUUGGCAUCUAACACAGCGCA [gtspaired]”: -0.735; for “GUGUGGUGUGUUGGACCCUAACACAUCACG [gtspaired]”: -0.468; for “UUUUUUUUUUGAGAAGGGAUCCUUCUCCAG [tttttgagapaired]”: -0.199.
The same measure for “GUGGUUGGUGUUGGAGCCUAACACCAAUCA [gtspaired]”: 0.221; for “UUUUUUUUUUGAGACGGGUGCCGUCUCCAG [tttttgagapaired]”: 0.742.
For the sequence “UUUUUUUUUUGAGAUGGAUUCCGUCUCCGG [tttttgagapaired]”, the binding signal (log2 fold change) was 0.503.
The same measure for “UUUUUUUUUUGAGACUGACACAGUCUCCUG [tttttgagapaired]”: 0.545; for “GGUUGUGGUGUUGGUCCCUAACACCACAGC [gtspaired]”: -0.583.
With “UUUUUUUUUUGAGAGGGUCCCCCUCUCCAG [tttttgagapaired]”, the binding signal (log2 fold change) is 0.723.
The same measure for “UUUUUUUUUUGAGAGGGAGGCCCUUUCCAG [tttttgagapaired]”: 0.423.
The same measure for “UUUUUUUUUUGAGAACGUGUCGUUCUCCGG [tttttgagapaired]”: 0.511.
As to “UUUUUUUUUUGAGACUGAGACAGUUUCCUA [tttttgagapaired]”, the binding signal (log2 fold change) was determined as 0.512.
The same measure for “UUUUUUUUUUGAGACGGCCACCGUCUUCUA [tttttgagapaired]”: 0.756; for “GUGUGUGGUGUUGGUCCCUAACACCAUACG [gtspaired]”: -0.519.
The same measure for “UUUUUUUUUUGAGACCGCGACGGUCUUCUA [tttttgagapaired]”: 0.369.
The same measure for “UUUUUUUUUUGAGAUGGUGGCUAUCUCCGG [tttttgagapaired]”: 0.914; for “GUUGUGUGUGUUGGCAUCUAACACACACGA [gtspaired]”: -0.443.
Take “GUGGUUGGUGUUGGUCUCUAACACCGACUA [gtspaired]”: the binding signal (log2 fold change) is -0.921.
The same measure for “GUGUGUGGUGUUGGAAUCUAACACCACGCG [gtspaired]”: -0.613; for “UUUUUUUUUUGAGAGGGUAUCCCUCUCCAG [tttttgagapaired]”: 0.169; for “GUGGUGUGUGUUGGACUCUAACACAUACUA [gtspaired]”: -0.923.
As for “GUGUGUUGUGUUGGCCCCUAACACAACGCG [gtspaired]”, the binding signal (log2 fold change) is -0.584.
As for “GUGUGUGGUGUUGGCGUCUAACACCGCACG [gtspaired]”, the binding signal (log2 fold change) was -0.448.
The same measure for “UUUUUUUUUUGAGACGGCGACCGUUUCCAG [tttttgagapaired]”: 0.825; for “UUUUUUUUUUGAGACGGGAGCCGUCUCCGG [tttttgagapaired]”: 0.595; for “GUGUUGUGUGUUGGAAUCUAACACACAGCA [gtspaired]”: -0.564.
The same measure for “UUUUUUUUUUGAGACCGCUGCGGUCUUCUA [tttttgagapaired]”: 0.781; for “UUUUUUUUUUGAGACGGUCUCUGUCUCCUA [tttttgagapaired]”: 0.849; for “UUUUUUUUUUGAGACGGUGUCUGUCUCCUA [tttttgagapaired]”: 0.818.
As for “UUUUUUUUUUGAGAUGGUAACCAUCUUCUA [tttttgagapaired]”, the binding signal (log2 fold change) is -0.301.
The same measure for “UUUUUUUUUUGAGAGCGAGACGCUCUCCUG [tttttgagapaired]”: 0.403; for “UUUUUUUUUUGAGACCGCAACGGUCUCCUA [tttttgagapaired]”: 0.241; for “UUUUUUUUUUGAGAGGGCGGCCCUCUCCGG [tttttgagapaired]”: 1.14.
As to “GUUGUGUGUGUUGGUCUCUAACACACACGA [gtspaired]”, the binding signal (log2 fold change) is -0.545.
The same measure for “GGUGGUGGUGUUGGCGCCUAACACCAUCGC [gtspaired]”: -0.463.
“UUUUUUUUUUGAGAUCGAGUCGAUCUCCUA [tttttgagapaired]”: the binding signal (log2 fold change) is 0.209.
As to “UUUUUUUUUUGAGAUCGGGACGAUUUCCAG [tttttgagapaired]”, the binding signal (log2 fold change) is 0.446.
With “UUCUCUUCUCCUCCACAGGAGGGGGAGGGA [ctspaired]”, the binding signal (log2 fold change) is -0.886.
As to “GUGUGUUGUGUUGGCAUCUAACACAACACG [gtspaired]”, the binding signal (log2 fold change) was -0.522.
Turning to “GGUGUUGGUGUUGGCCUCUAACACCGAUAC [gtspaired]”, the binding signal (log2 fold change) was -0.813.
The same measure for “UUUUUUUUUUGAGACUGUAUCAGUUUCCUG [tttttgagapaired]”: 0.479; for “UUUUUUUUUUGAGAUCGAGGCGAUCUCCGG [tttttgagapaired]”: 0.183; for “UUUUUUUUUUGAGAUGGAGCCCAUCUCCUA [tttttgagapaired]”: 0.375.
The same measure for “GUGUGGUGUGUUGGUGCCUAACACACCGCG [gtspaired]”: -0.428; for “UUUUUUUUUUGAGAUGGCGGCCAUCUCCGG [tttttgagapaired]”: 0.72; for “UUUUUUUUUUGAGACUGAUCCAGUCUUCUA [tttttgagapaired]”: -0.172.
